# Test results reported in the supplement of paper PMC4466236.
# Over roughly 33,000 sequences, “E-score (dimensionless, -0.5 to 0.5)” has its median near -0.058; the highest 2% begin near 0.35. The list shows a part of the results.
# Test system: MvaT
# Test: PBM 8-mer E-score (mean of HK and ME arrays) (E-score (dimensionless, -0.5 to 0.5)); higher = stronger relative binding preference; most listed sequences are background and not binding sites
# How it was run: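 Reported values are rank-based E-scores, taken as the mean of two universal arrays and parsed with a custom script. Each 8-mer score falls between -0.5 and 0.5. The arrays, ME and HK, were double-stranded 60-mers with a constant 25-mer primer region and a variable 35-mer region covering all 8-mers. They were probed, by an earlier protocol, with full-length P. aeruginosa MvaT carrying an N-terminal glutathione S-transferase fusion.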
row,Sequence,PBM 8-mer E-score
1,AATTCTTG,0.144
2,AGTCGCAC,-0.0455
3,ATCTGGGC,-0.238
4,ATTCTGCA,0.1
5,GCTCCGAC,-0.151
6,ACCTAAAG,-0.0632
7,GTCAAGAC,-0.0667
8,CCAAACCG,-0.101
9,AGACGTTC,-0.262
10,ATGCGCCA,-0.0242
11,ACGGTTCC,-0.202
12,CTTATCGC,0.049
13,TGGCACCA,-0.0973
14,GACCGCAC,-0.231
15,AGCGCGAT,-0.196
16,GCAGTCCA,-0.155
17,ATTGTGGG,0.052
18,CGGACGAC,-0.293
19,CAAGATAA,0.21
20,ATATGTAA,0.309
21,ATAATGGG,0.229
22,AGACCAGC,-0.125
23,ACTCCGTA,-0.079
24,CAAGTTCG,0.183
25,ACGGAACT,-0.0238

row,Sequence,PBM 8-mer E-score
1,AGAGATCA,-0.16
2,CTGTAATC,0.0848
3,ATCGAAAT,0.228
4,TATCAGCA,0.0546
5,CAAGATGA,-0.12
6,ACCCAAGG,-0.274
7,TAACGGGA,0.121
8,ATCGACTA,-0.0383
9,GACCCATA,-0.0337
10,GATAATGA,0.225
11,AACCGTTA,0.132
12,GTGCAATA,0.159
13,AAATGCGC,0.0866
14,GGTCATCA,-0.029
15,ACTCACGC,-0.108
16,CATCGTAA,-0.00964
17,ACTCTATA,0.231
18,AGGTGTCC,-0.202
19,AAGAAAGT,0.295
20,TCCTTTCA,-0.123
21,AGTAAAGC,-0.0688
22,GAGCTACA,-0.0868
23,CATATATA,0.451
24,AGGGACCC,-0.282
25,CCTGAGAC,-0.283

row,Sequence,PBM 8-mer E-score
1,ACGATCGG,-0.112
2,CGCCGTTC,-0.0974
3,AGACAATG,0.12
4,AACCGCCG,-0.233
5,AACAGGAC,0.00152
6,AGTAAGCC,-0.0729
7,AAGGTCTG,-0.162
8,ATTTCGCA,0.216
9,CCAATTCG,-0.0984
10,CCCAAAGG,-0.28
11,CTCACATC,-0.279
12,AGATAAGC,0.0228
13,CGTAAGTA,0.0963
14,AACTCTAC,0.118
15,ACAAGTAG,0.202
16,AGGGAGAA,-0.164
17,CAACCAAA,0.105
18,CCTCTTAA,0.0626
19,CATTGCTA,-0.049
20,CCACTACA,0.0434
21,CCTCGTAC,-0.108
22,AACTTTTA,0.34
23,ATGAGTAC,0.21
24,CCTAGGTC,-0.272
25,GGCCTACC,-0.323

row,Sequence,PBM 8-mer E-score
1,TAACTGGA,0.225
2,GCCGTGCA,-0.0899
3,CTGACAAG,-0.192
4,GGAACCCC,-0.336
5,CTGTCAAG,-0.125
6,GCTTTACC,-0.0879
7,CCTCAAAA,-0.00376
8,AGGCCAGG,-0.23
9,AAGACGCC,-0.227
10,CTAATATA,0.434
11,ATCAAAAG,0.0981
12,ATCCCAAA,0.0803
13,TCAATCGA,-0.0479
14,AGACGCCT,-0.288
15,GATTACCA,0.0745
16,CATTAGGG,-0.306
17,AAAGTAGT,0.235
18,ACGTAGTG,-0.146
19,CAGAGTGG,-0.169
20,AGAAACAG,0.0342
21,GCGTCAGA,-0.131
22,GCCGATTA,0.00795
23,AACTACTA,0.239
24,ACATCACA,-0.00205
25,CCTACTAC,-0.0926

row,Sequence,PBM 8-mer E-score
1,CCAGGCCC,-0.315
2,ATTGCCCC,-0.0605
3,CCGCCTGA,-0.259
4,ATGAGCAT,-0.143
5,AATAAGCC,0.183
6,ACTGGTCT,-0.0903
7,CGCAGTTA,0.179
8,ATGAGAAA,0.0934
9,TAAGACGA,-0.0159
10,AGCGATGA,0.00185
11,CAGGTTTA,0.0374
12,CCGCTGAC,-0.192
13,AGTGAAAA,0.0323
14,ACCTAGGT,-0.068
15,CCCGCACG,-0.204
16,ACTAGACT,-0.0171
17,AGTGTCAA,0.0442
18,CAGATATC,0.0971
19,ACGGTGCC,-0.234
20,ACAAAGTC,-0.00742
21,CGGGACCG,-0.191
22,GAATCACC,-0.137
23,GTATCGCA,0.0328
24,CATGCTAA,-0.00363
25,GACGCTCC,-0.272

row,Sequence,PBM 8-mer E-score
1,ACCCTTTC,-0.289
2,ACAGACGC,-0.0838
3,GAACGTGA,0.0425
4,GCCTCGTA,-0.109
5,CACCTGCA,-0.17
6,GTAGCCGA,-0.0246
7,CACGTCTC,-0.173
8,ATAAACCG,0.145
9,CTAATGCA,-0.0396
10,CGTCGGAG,-0.239
11,GGGCGCCC,-0.231
12,ACACACGG,-0.207
13,GCCTGAAA,-0.145
14,GCGCACCC,-0.268
15,ATGCTGAG,-0.216
16,CAACGCAG,-0.078
17,GAATAACC,0.197
18,AACCGACC,-0.0337
19,CAATAGGC,-0.161
20,CAATGAGG,-0.12
21,AGTGCTAT,0.172
22,GAAAGATC,-0.12
23,GGGGGGAA,-0.179
24,CTGTATGC,-0.0229
25,GAGGGGCA,-0.237

row,Sequence,PBM 8-mer E-score
1,GAGTAACC,-0.00206
2,GGAAGGTA,-0.0496
3,CCGAAAGG,-0.3
4,CACGACGG,-0.274
5,CGATAGCC,-0.14
6,AGGTGAAT,0.0769
7,ACATCCAG,0.0662
8,CCACCTCG,-0.129
9,ACTGCCTA,-0.0804
10,AAAAGTAA,0.28
11,CTCGTATA,0.149
12,TGTATGAA,0.183
13,AACTTCAT,0.239
14,GGGATTCA,-0.0883
15,CCTGTTCG,-0.151
16,GTAAACGA,-0.0533
17,AACCGGCC,-0.111
18,GTGACTGA,-0.146
19,GCGAGAAA,0.0152
20,TAACGTCA,0.0862
21,CTGGGGCA,-0.263
22,AGAACCCC,-0.237
